Assay results as given in article PMC12820563.
The other results are listed elsewhere or left out. The list includes weakly bound sequences.

Biological target: T1, MBP-FoxP3dN (UniProt Q99JB6)
T1 sequence: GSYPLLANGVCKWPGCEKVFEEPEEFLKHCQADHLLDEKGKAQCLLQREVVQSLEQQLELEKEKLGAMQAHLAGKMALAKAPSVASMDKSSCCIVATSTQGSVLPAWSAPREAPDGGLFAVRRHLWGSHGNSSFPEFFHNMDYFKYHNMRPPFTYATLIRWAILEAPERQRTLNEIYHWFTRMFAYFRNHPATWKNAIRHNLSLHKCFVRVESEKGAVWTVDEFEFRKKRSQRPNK
Assay: PD-seq (MBP pull-down with sequencing)
Conditions: 20 mM Tris-HCl pH 7.5, 100 mM NaCl, 1.5 mM MgCl2, 0.4 uM protein, 0.1 uM dsDNA library, 30 min, room temperature, amylose pull-down; high values mean tight binding; double strand, one strand shown

Sequence	binding signal (RPM ratio (pull-down/input))
GATGATTGTTCTCCCAGCTGATGAATTTATTTCGTCGAGTAAACAAATTTTCCTAATCTTTCTGTTCAAGCGCCATCTAC	2.99
GATGATTGTTCTCCCAGCTGATGAATTTTAATTGTCGAGTAAACAAATTTTCCTAATCTTTCTGTTCAAGCGCCATCTAC	2.53
GATGATTGTTCTCCCAGCTGATGAATTTGCATCTTCGAGTAAACAAATTTTCCTAATCTTTCTGTTCAAGCGCCATCTAC	7.16
GATGATTGTTCTCCCAGCTGATGAATTGACTCCTTCGAGTAAACAAATTTTCCTAATCTTTCTGTTCAAGCGCCATCTAC	0.393
GATGATTGTTCTCCCAGCTGATGAATTGAGTCTATCGAGTAAACAAATTTTCCTAATCTTTCTGTTCAAGCGCCATCTAC	0.636
GATGATTGTTCTCCCAGCTGATGAATTCTGCTACTCGAGTAAACAAATTTTCCTAATCTTTCTGTTCAAGCGCCATCTAC	2.1
GATGATTGTTCTCCCAGCTGATGAATTGAACATCTCGAGTAAACAAATTTTCCTAATCTTTCTGTTCAAGCGCCATCTAC	0.513
GATGATTGTTCTCCCAGCTGATGAATTCGTAGTGTCGAGTAAACAAATTTTCCTAATCTTTCTGTTCAAGCGCCATCTAC	1.8
GATGATTGTTCTCCCAGCTGATGAATTCGTGTGTTCGAGTAAACAAATTTTCCTAATCTTTCTGTTCAAGCGCCATCTAC	1.9
GATGATTGTTCTCCCAGCTGATGAATTCCTTGTTTCGAGTAAACAAATTTTCCTAATCTTTCTGTTCAAGCGCCATCTAC	0.413
GATGATTGTTCTCCCAGCTGATGAATTTGCGCCATCGAGTAAACAAATTTTCCTAATCTTTCTGTTCAAGCGCCATCTAC	3.14
GATGATTGTTCTCCCAGCTGATGAATTTGTCTAATCGAGTAAACAAATTTTCCTAATCTTTCTGTTCAAGCGCCATCTAC	2.93
GATGATTGTTCTCCCAGCTGATGAATTCTTATGTTCGAGTAAACAAATTTTCCTAATCTTTCTGTTCAAGCGCCATCTAC	0.556
GATGATTGTTCTCCCAGCTGATGAATTTTGGTCGTCGAGTAAACAAATTTTCCTAATCTTTCTGTTCAAGCGCCATCTAC	0.496
GATGATTGTTCTCCCAGCTGATGAATTTGTCACGTCGAGTAAACAAATTTTCCTAATCTTTCTGTTCAAGCGCCATCTAC	5.14
GATGATTGTTCTCCCAGCTGATGAATTGATCCCCTCGAGTAAACAAATTTTCCTAATCTTTCTGTTCAAGCGCCATCTAC	0.286
GATGATTGTTCTCCCAGCTGATGAATTCAGGATTTCGAGTAAACAAATTTTCCTAATCTTTCTGTTCAAGCGCCATCTAC	0.289
GATGATTGTTCTCCCAGCTGATGAATTCCGCTGATCGAGTAAACAAATTTTCCTAATCTTTCTGTTCAAGCGCCATCTAC	0.55
GATGATTGTTCTCCCAGCTGATGAATTCTGAGGCTCGAGTAAACAAATTTTCCTAATCTTTCTGTTCAAGCGCCATCTAC	0.422
GATGATTGTTCTCCCAGCTGATGAATTCAGGTATTCGAGTAAACAAATTTTCCTAATCTTTCTGTTCAAGCGCCATCTAC	0.944
GATGATTGTTCTCCCAGCTGATGAATTATTGTTATCGAGTAAACAAATTTTCCTAATCTTTCTGTTCAAGCGCCATCTAC	3.55

Sequence	binding signal (RPM ratio (pull-down/input))
GATGATTGTTCTCCCAGCTGATGAATTTGCACCGTCGAGTAAACAAATTTTCCTAATCTTTCTGTTCAAGCGCCATCTAC	0.628
GATGATTGTTCTCCCAGCTGATGAATTCATTACGTCGAGTAAACAAATTTTCCTAATCTTTCTGTTCAAGCGCCATCTAC	0.489
GATGATTGTTCTCCCAGCTGATGAATTATCCCTTTCGAGTAAACAAATTTTCCTAATCTTTCTGTTCAAGCGCCATCTAC	0.303
GATGATTGTTCTCCCAGCTGATGAATTGTCAATCTCGAGTAAACAAATTTTCCTAATCTTTCTGTTCAAGCGCCATCTAC	0.498
GATGATTGTTCTCCCAGCTGATGAATTGCCTAAATCGAGTAAACAAATTTTCCTAATCTTTCTGTTCAAGCGCCATCTAC	0.462
GATGATTGTTCTCCCAGCTGATGAATTCTAACAATCGAGTAAACAAATTTTCCTAATCTTTCTGTTCAAGCGCCATCTAC	0.637
GATGATTGTTCTCCCAGCTGATGAATTTTCACGCTCGAGTAAACAAATTTTCCTAATCTTTCTGTTCAAGCGCCATCTAC	0.323
GATGATTGTTCTCCCAGCTGATGAATTCCCAGGATCGAGTAAACAAATTTTCCTAATCTTTCTGTTCAAGCGCCATCTAC	0.145
GATGATTGTTCTCCCAGCTGATGAATTGACCTACTCGAGTAAACAAATTTTCCTAATCTTTCTGTTCAAGCGCCATCTAC	0.329
GATGATTGTTCTCCCAGCTGATGAATTTCCAAATTCGAGTAAACAAATTTTCCTAATCTTTCTGTTCAAGCGCCATCTAC	0.207
GATGATTGTTCTCCCAGCTGATGAATTATAGCGTTCGAGTAAACAAATTTTCCTAATCTTTCTGTTCAAGCGCCATCTAC	1.27
GATGATTGTTCTCCCAGCTGATGAATTCAACTTCTCGAGTAAACAAATTTTCCTAATCTTTCTGTTCAAGCGCCATCTAC	0.303
GATGATTGTTCTCCCAGCTGATGAATTATCGATGTCGAGTAAACAAATTTTCCTAATCTTTCTGTTCAAGCGCCATCTAC	0.472
GATGATTGTTCTCCCAGCTGATGAATTATTGACCTCGAGTAAACAAATTTTCCTAATCTTTCTGTTCAAGCGCCATCTAC	1.05
GATGATTGTTCTCCCAGCTGATGAATTTGATAAGTCGAGTAAACAAATTTTCCTAATCTTTCTGTTCAAGCGCCATCTAC	0.369
GATGATTGTTCTCCCAGCTGATGAATTGAGTGCGTCGAGTAAACAAATTTTCCTAATCTTTCTGTTCAAGCGCCATCTAC	0.911
GATGATTGTTCTCCCAGCTGATGAATTTCCGCTGTCGAGTAAACAAATTTTCCTAATCTTTCTGTTCAAGCGCCATCTAC	0.336
GATGATTGTTCTCCCAGCTGATGAATTCTATTTCTCGAGTAAACAAATTTTCCTAATCTTTCTGTTCAAGCGCCATCTAC	1.19
GATGATTGTTCTCCCAGCTGATGAATTGCAGTAATCGAGTAAACAAATTTTCCTAATCTTTCTGTTCAAGCGCCATCTAC	1.01
GATGATTGTTCTCCCAGCTGATGAATTTCTTCGTTCGAGTAAACAAATTTTCCTAATCTTTCTGTTCAAGCGCCATCTAC	0.236
GATGATTGTTCTCCCAGCTGATGAATTTACACTTTCGAGTAAACAAATTTTCCTAATCTTTCTGTTCAAGCGCCATCTAC	0.702

Sequence	binding signal (RPM ratio (pull-down/input))
GATGATTGTTCTCCCAGCTGATGAATTCGAGTCATCGAGTAAACAAATTTTCCTAATCTTTCTGTTCAAGCGCCATCTAC	0.592
GATGATTGTTCTCCCAGCTGATGAATTTTGACTGTCGAGTAAACAAATTTTCCTAATCTTTCTGTTCAAGCGCCATCTAC	1.13
GATGATTGTTCTCCCAGCTGATGAATTAACTGAATCGAGTAAACAAATTTTCCTAATCTTTCTGTTCAAGCGCCATCTAC	0.228
GATGATTGTTCTCCCAGCTGATGAATTCCATGCATCGAGTAAACAAATTTTCCTAATCTTTCTGTTCAAGCGCCATCTAC	0.979
GATGATTGTTCTCCCAGCTGATGAATTCGGCTCCTCGAGTAAACAAATTTTCCTAATCTTTCTGTTCAAGCGCCATCTAC	0.758
GATGATTGTTCTCCCAGCTGATGAATTGGGCTCCTCGAGTAAACAAATTTTCCTAATCTTTCTGTTCAAGCGCCATCTAC	0.659
GATGATTGTTCTCCCAGCTGATGAATTGGCAGGCTCGAGTAAACAAATTTTCCTAATCTTTCTGTTCAAGCGCCATCTAC	0.317
GATGATTGTTCTCCCAGCTGATGAATTACAACGCTCGAGTAAACAAATTTTCCTAATCTTTCTGTTCAAGCGCCATCTAC	0.565
GATGATTGTTCTCCCAGCTGATGAATTAATCGAGTCGAGTAAACAAATTTTCCTAATCTTTCTGTTCAAGCGCCATCTAC	0.273
GATGATTGTTCTCCCAGCTGATGAATTGGAAAGTTCGAGTAAACAAATTTTCCTAATCTTTCTGTTCAAGCGCCATCTAC	0.162
GATGATTGTTCTCCCAGCTGATGAATTCTACTATTCGAGTAAACAAATTTTCCTAATCTTTCTGTTCAAGCGCCATCTAC	0.531
GATGATTGTTCTCCCAGCTGATGAATTCAGTTGTTCGAGTAAACAAATTTTCCTAATCTTTCTGTTCAAGCGCCATCTAC	4.73
GATGATTGTTCTCCCAGCTGATGAATTGCCATCGTCGAGTAAACAAATTTTCCTAATCTTTCTGTTCAAGCGCCATCTAC	0.955
GATGATTGTTCTCCCAGCTGATGAATTGAGCACGTCGAGTAAACAAATTTTCCTAATCTTTCTGTTCAAGCGCCATCTAC	0.919
GATGATTGTTCTCCCAGCTGATGAATTCGCCTACTCGAGTAAACAAATTTTCCTAATCTTTCTGTTCAAGCGCCATCTAC	0.545
GATGATTGTTCTCCCAGCTGATGAATTGTTCTACTCGAGTAAACAAATTTTCCTAATCTTTCTGTTCAAGCGCCATCTAC	0.433
GATGATTGTTCTCCCAGCTGATGAATTTACAATTTCGAGTAAACAAATTTTCCTAATCTTTCTGTTCAAGCGCCATCTAC	0.441
GATGATTGTTCTCCCAGCTGATGAATTGTTTGGGTCGAGTAAACAAATTTTCCTAATCTTTCTGTTCAAGCGCCATCTAC	4.43
GATGATTGTTCTCCCAGCTGATGAATTTCACGTGTCGAGTAAACAAATTTTCCTAATCTTTCTGTTCAAGCGCCATCTAC	0.496
GATGATTGTTCTCCCAGCTGATGAATTGAGATCGTCGAGTAAACAAATTTTCCTAATCTTTCTGTTCAAGCGCCATCTAC	0.315
GATGATTGTTCTCCCAGCTGATGAATTAAATTCTTCGAGTAAACAAATTTTCCTAATCTTTCTGTTCAAGCGCCATCTAC	0.406
